{"source": "the supplement of paper PMC8728848", "assay_in_all_cases": "glycan array binding signal (z-score within array); higher = stronger binding", "details_in_all_cases": "glycan notation: IUPAC condensed, linker removed; mutation: H262T", "key": {"[1]": {"target": "GlcNAc(b1-3)Gal(b1-4)GlcNAc(b1-3)Gal(b1-4)GlcNAc(b1-3)Gal(b1-4)GlcNAc(b1-3)Gal(b1-4)GlcNAc(b1-2)[GlcNAc(b1-3)Gal(b1-4)GlcNAc(b1-3)Gal(b1-4)GlcNAc(b1-3)Gal(b1-4)GlcNAc(b1-3)Gal(b1-4)GlcNAc(b1-6)]Man(a1-6)[GlcNAc(b1-3)Gal(b1-4)GlcNAc(b1-3)Gal(b1-4)GlcNAc(b1-3)Gal(b1-4)GlcNAc(b1-3)Gal(b1-4)GlcNAc(b1-2)Man(a1-3)]Man(b1-4)GlcNAc(b1-4)[Fuc(a1-6)]GlcNAc", "how_it_was_run": "(§1)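 The Consortium for Functional Glycomics database supplied 3228 glycan arrays, of which those lacking an available protein sequence were dropped. The binding signal, a within-array Z-score, was averaged across arrays of the same protein sequence and across linkers. Negative scores can be read as non-binding.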"}, "[2]": {"target": "GlcNAc(b1-3)Gal(b1-4)GlcNAc(b1-3)Gal(b1-4)GlcNAc(b1-3)GalNAc", "how_it_was_run": "as §1"}, "[3]": {"target": "GlcNAc(b1-3)Gal(b1-4)GlcNAc(b1-3)GalNAc", "how_it_was_run": "as §1"}, "[4]": {"target": "GlcNAc(b1-3)Gal(b1-4)GlcNAc(b1-3)[GlcNAc(b1-3)Gal(b1-4)GlcNAc(b1-3)]GalNAc", "how_it_was_run": "as §1"}, "[5]": {"target": "GlcNAc(b1-3)Gal(b1-4)GlcNAc(b1-6)[Gal(b1-3)]GalNAc", "how_it_was_run": "as §1"}, "[6]": {"target": "GlcNAc(b1-3)Gal(b1-4)GlcNAc(b1-6)[GlcNAc(b1-3)Gal(b1-3)]GalNAc", "how_it_was_run": "as §1"}, "[7]": {"target": "GlcNAc(b1-3)Gal(b1-4)GlcNAc(b1-6)[GlcNAc(b1-3)]Gal(b1-4)GlcNAc", "how_it_was_run": "as §1"}, "GlcNAc(b1-3)GalNAc": {"target": "GlcNAc(b1-3)GalNAc", "how_it_was_run": "as §1"}, "GlcNAc(b1-3)Man": {"target": "GlcNAc(b1-3)Man", "how_it_was_run": "as §1"}, "[8]": {"target": "GlcNAc(b1-3)[GlcNAc(b1-4)][GlcNAc(b1-6)]GlcNAc", "how_it_was_run": "as §1"}, "[9]": {"target": "GlcNAc(b1-3)[GlcNAc(b1-6)]Gal(b1-4)GlcNAc", "how_it_was_run": "as §1"}, "[10]": {"target": "GlcNAc(b1-3)[GlcNAc(b1-6)]GalNAc", "how_it_was_run": "as §1"}, "[11]": {"target": "GlcNAc(b1-4)Gal(b1-4)GlcNAc", "how_it_was_run": "as §1"}, "GlcNAc(b1-4)GlcNAc": {"target": "GlcNAc(b1-4)GlcNAc", "how_it_was_run": "as §1"}, "[12]": {"target": "GlcNAc(b1-4)GlcNAc(b1-4)GlcNAc", "how_it_was_run": "as §1"}, "[13]": {"target": "GlcNAc(b1-4)GlcNAc(b1-4)GlcNAc(b1-4)GlcNAc(b1-4)GlcNAc", "how_it_was_run": "as §1"}, "[14]": {"target": "GlcNAc(b1-4)GlcNAc(b1-4)GlcNAc(b1-4)GlcNAc(b1-4)GlcNAc(b1-4)GlcNAc", "how_it_was_run": "as §1"}, "[15]": {"target": "GlcNAc(b1-4)[GlcNAc(b1-6)]GalNAc", "how_it_was_run": "as §1"}, "[16]": {"target": "GlcNAc(b1-6)Gal(b1-4)GlcNAc", "how_it_was_run": "as §1"}, "GlcNAc(b1-6)GalNAc": {"target": "GlcNAc(b1-6)GalNAc", "how_it_was_run": "as §1"}, "[17]": {"target": "GlcNAc6S(b1-3)Gal(b1-4)GlcNAc", "how_it_was_run": "as §1"}, "Kdn(a2-3)Gal(b1-3)GalNAc": {"target": "Kdn(a2-3)Gal(b1-3)GalNAc", "how_it_was_run": "as §1"}, "Kdn(a2-3)Gal(b1-3)GlcNAc": {"target": "Kdn(a2-3)Gal(b1-3)GlcNAc", "how_it_was_run": "as §1"}, "Kdn(a2-3)Gal(b1-4)Glc": {"target": "Kdn(a2-3)Gal(b1-4)Glc", "how_it_was_run": "as §1"}, "Kdn(a2-3)Gal(b1-4)GlcNAc": {"target": "Kdn(a2-3)Gal(b1-4)GlcNAc", "how_it_was_run": "as §1"}, "[18]": {"target": "Kdn(a2-3)Gal(b1-4)[Fuc(a1-3)]GlcNAc", "how_it_was_run": "as §1"}, "Kdn(a2-6)Gal(b1-4)GlcNAc": {"target": "Kdn(a2-6)Gal(b1-4)GlcNAc", "how_it_was_run": "as §1"}, "[19]": {"target": "Man(a1-2)Man(a1-2)Man(a1-3)Man", "how_it_was_run": "as §1"}, "[20]": {"target": "Man(a1-2)Man(a1-2)Man(a1-6)[Man(a1-3)]Man", "how_it_was_run": "as §1"}, "Man(a1-2)Man(a1-3)Man": {"target": "Man(a1-2)Man(a1-3)Man", "how_it_was_run": "as §1"}, "[21]": {"target": "Man(a1-2)Man(a1-3)[Man(a1-2)Man(a1-6)]Man", "how_it_was_run": "as §1"}, "[22]": {"target": "Man(a1-2)Man(a1-3)[Man(a1-2)Man(a1-6)]Man(a1-6)[Man(a1-2)Man(a1-2)Man(a1-3)]Man", "how_it_was_run": "as §1"}, "[23]": {"target": "Man(a1-2)Man(a1-3)[Man(a1-2)Man(a1-6)]Man(a1-6)[Man(a1-2)Man(a1-2)Man(a1-3)]Man(b1-4)GlcNAc(b1-4)GlcNAc", "how_it_was_run": "as §1"}, "[24]": {"target": "Man(a1-2)Man(a1-3)[Man(a1-6)]Man(a1-6)[Man(a1-2)Man(a1-3)]Man(b1-4)GlcNAc(b1-4)GlcNAc", "how_it_was_run": "as §1"}, "[25]": {"target": "Man(a1-2)Man(a1-6)[Man(a1-3)]Man(a1-6)[Man(a1-2)Man(a1-2)Man(a1-3)]Man", "how_it_was_run": "as §1"}, "[26]": {"target": "Man(a1-2)Man(a1-6)[Man(a1-3)]Man(a1-6)[Man(a1-2)Man(a1-2)Man(a1-3)]Man(b1-4)GlcNAc(b1-4)GlcNAc", "how_it_was_run": "as §1"}, "Man(a1-3)[Man(a1-6)]Man": {"target": "Man(a1-3)[Man(a1-6)]Man", "how_it_was_run": "as §1"}}, "note": "The list shows a part of the results."}
{"binder": "MGL6A (Homo sapiens) (protein) MTRTYENFQYLENKVKVQGFKNGPLPLQSLLQRLCSGPCHLLLSLGLGLLLLVIICVVGFQNSKFQRDLVTLRTDFSNFTSNTVAEIQALTSQGSSLEETIASLKAEVEGFKQERQAVHSEMLLRVQQLVQDLKKLTCQVATLNNNGEEASTEGTCCPVNWVEHQDSCYWFSHSGMSWAEAEKYCQLKNAHLVVINSREEQNFVQKYLGSAYTWMGLSDPEGAWKWVDGTDYATGFQNWKPGQPDDWQGHGLGGGEDCAHFTPDGRWNDDVCQRPYHWVCEAGLGQTSQESH", "values": [{"measurement": "glycan array binding signal (z-score)", "setting": "[1]", "value": -0.153}, {"measurement": "glycan array binding signal (z-score)", "setting": "[2]", "value": -0.166}, {"measurement": "glycan array binding signal (z-score)", "setting": "[3]", "value": -0.169}, {"measurement": "glycan array binding signal (z-score)", "setting": "[4]", "value": -0.176}, {"measurement": "glycan array binding signal (z-score)", "setting": "[5]", "value": -0.176}, {"measurement": "glycan array binding signal (z-score)", "setting": "[6]", "value": -0.174}, {"measurement": "glycan array binding signal (z-score)", "setting": "[7]", "value": -0.177}, {"measurement": "glycan array binding signal (z-score)", "setting": "GlcNAc(b1-3)GalNAc", "value": -0.151}, {"measurement": "glycan array binding signal (z-score)", "setting": "GlcNAc(b1-3)Man", "value": -0.177}, {"measurement": "glycan array binding signal (z-score)", "setting": "[8]", "value": -0.175}, {"measurement": "glycan array binding signal (z-score)", "setting": "[9]", "value": -0.173}, {"measurement": "glycan array binding signal (z-score)", "setting": "[10]", "value": -0.174}, {"measurement": "glycan array binding signal (z-score)", "setting": "[11]", "value": -0.171}, {"measurement": "glycan array binding signal (z-score)", "setting": "GlcNAc(b1-4)GlcNAc", "value": -0.174}, {"measurement": "glycan array binding signal (z-score)", "setting": "[12]", "value": -0.175}, {"measurement": "glycan array binding signal (z-score)", "setting": "[13]", "value": -0.174}, {"measurement": "glycan array binding signal (z-score)", "setting": "[14]", "value": -0.175}, {"measurement": "glycan array binding signal (z-score)", "setting": "[15]", "value": -0.174}, {"measurement": "glycan array binding signal (z-score)", "setting": "[16]", "value": -0.173}, {"measurement": "glycan array binding signal (z-score)", "setting": "GlcNAc(b1-6)GalNAc", "value": 5.17}, {"measurement": "glycan array binding signal (z-score)", "setting": "[17]", "value": -0.172}, {"measurement": "glycan array binding signal (z-score)", "setting": "Kdn(a2-3)Gal(b1-3)GalNAc", "value": -0.176}, {"measurement": "glycan array binding signal (z-score)", "setting": "Kdn(a2-3)Gal(b1-3)GlcNAc", "value": -0.173}, {"measurement": "glycan array binding signal (z-score)", "setting": "Kdn(a2-3)Gal(b1-4)Glc", "value": -0.173}, {"measurement": "glycan array binding signal (z-score)", "setting": "Kdn(a2-3)Gal(b1-4)GlcNAc", "value": -0.161}, {"measurement": "glycan array binding signal (z-score)", "setting": "[18]", "value": -0.174}, {"measurement": "glycan array binding signal (z-score)", "setting": "Kdn(a2-6)Gal(b1-4)GlcNAc", "value": -0.175}, {"measurement": "glycan array binding signal (z-score)", "setting": "[19]", "value": -0.176}, {"measurement": "glycan array binding signal (z-score)", "setting": "[20]", "value": -0.177}, {"measurement": "glycan array binding signal (z-score)", "setting": "Man(a1-2)Man(a1-3)Man", "value": -0.173}, {"measurement": "glycan array binding signal (z-score)", "setting": "[21]", "value": -0.175}, {"measurement": "glycan array binding signal (z-score)", "setting": "[22]", "value": -0.174}, {"measurement": "glycan array binding signal (z-score)", "setting": "[23]", "value": -0.182}, {"measurement": "glycan array binding signal (z-score)", "setting": "[24]", "value": -0.173}, {"measurement": "glycan array binding signal (z-score)", "setting": "[25]", "value": -0.176}, {"measurement": "glycan array binding signal (z-score)", "setting": "[26]", "value": -0.179}, {"measurement": "glycan array binding signal (z-score)", "setting": "Man(a1-3)[Man(a1-6)]Man", "value": -0.173}]}
